The other results are listed elsewhere or left out.
Each molecule was assayed on HSkMC (human skeletal muscle cells) (assay: cytotoxicity call (relative viability < 0.9)). Conditions: 10 µM.

Compound | cytotoxicity call
CNC(=O)C[C@@H]1CC[C@@H]2[C@H](COC[C@H](O)CN2C(=O)c2ccc3c(c2)OCO3)O1 | inactive
CN(CC(=O)O)[C@H]1CCS(=O)(=O)C1 | inactive
CNC[C@@H]1OCCCC[C@H](C)Oc2ccc(NC(=O)Nc3cccc4ccccc34)cc2C(=O)N([C@@H](C)CO)C[C@H]1C | inactive
C[C@H]1CN([C@@H](C)CO)C(=O)c2ccccc2-c2ccccc2CO[C@@H]1CN(C)Cc1ccc(C(F)(F)F)cc1 | inactive
C[C@@H]1CCCCO[C@H](CN(C)C(=O)c2ccncc2)[C@@H](C)CN([C@H](C)CO)C(=O)c2cc(NS(C)(=O)=O)ccc2O1 | inactive
C[C@@H]1CN([C@@H](C)CO)C(=O)c2cc(C#CC3CC3)cnc2O[C@@H]1CN(C)S(=O)(=O)c1cccc(F)c1 | inactive
COc1ccc(S(=O)(=O)N2C[C@@H](O)COC[C@@H]3O[C@@H](CC(=O)NCc4ccc(Cl)c(Cl)c4)CC[C@H]32)cc1 | inactive
O=C(NCCN1CCCC1)[C@H]1N[C@H]2c3ccc(-c4ccccc4)c(=O)n3C[C@H]2[C@@H]1CO | inactive
CCOc1ccc(NC(C)=O)cc1 | inactive
COc1cccc(C#Cc2ccc3c(c2)O[C@@H](CN(C)C(=O)CN2CCOCC2)[C@@H](C)CN([C@H](C)CO)S3(=O)=O)c1 | inactive
C[C@@H]1CN([C@H](C)CO)C(=O)c2cc(NC(=O)CCC(F)(F)F)ccc2O[C@H]1CN(C)Cc1ccc(-c2ccccc2)cc1 | inactive
COCC(=O)Nc1ccc2c(c1)C(=O)N(C)[C@H]1CC[C@@H](CC(=O)NCc3ccc(OC)cc3)O[C@@H]1CO2 | inactive

— the antibiotic and cytotoxicity screens of Wong et al. (2023)
